Test results as given in PubChem BioAssay AID588855 (National Center for Advancing Translational Sciences (NCATS), 2011).
About 5,000 (1.2%) of roughly 410,000 compounds were called active. Inconclusive means that the source gave no clear call. Such entries were picked first, then a sample of the others. The call rests on the fitted dose curve; in most records, active means well fitted inhibition curve with a large enough effect; inconclusive means small, poorly fitted or top-dose-only effect; inactive means no such curve, though single readings can be large or run the other way. A potency beside an inconclusive call is a rough fit, not a confirmed value.

Assay: qHTS for Inhibitors of TGF-b; further: nearly all actives have a fitted effect of over 65% in size
Settings: HepG2 CAGA-GFP TGF-b/SMAD3 reporter, GFP fluorescence, 18 h, TGF-beta stimulated, 500 pg/mL final; series mostly up to 46.1 µM
Summary of the method: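 First, reporter cells (HEPG2 CAGA-GFP) rested 2 h at 37 degrees C. Next, compounds were pinned in and TGF-beta added to 500 pg/mL final. After 18 h, GFP was imaged per cell and summed per well.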
Potency means the concentration at half of the fitted maximal effect; tags describe the fitted curve by direction and shape.

Structure (SMILES)	Potency
Cc1ccc(S(=O)(=O)Nc2ccc(O)c3cccnc23)cc1	inconclusive: 35.5 µM [inhibitor, single point]
Cc1c(C(=O)OCCOc2ccc(Br)cc2)sc(=S)n1C	inconclusive: 17.8 µM [inhibitor, partial curve, poor fit]
O=C(Nc1ccccc1Oc1cccnc1)C1CCCN(Cc2ccc(F)cc2)C1 (centres undefined)	inactive
Cc1nc(N2CCCC2)c2c(C(=O)N3CCN(c4cc(Cl)ccc4C)CC3)c(C)oc2n1	inconclusive: 11.2 µM [inhibitor, partial curve, poor fit]
Cc1ccc(C(=O)c2cn(Cc3ccccc3)c3nc(C)ccc3c2=O)cc1	inconclusive: 0.112 µM [inhibitor, full curve, poor fit]
CC(=O)Oc1ccc2c(c1)OC(c1ccccc1)CC21CC(C)(C)NC(=O)N1 (centres undefined)	inconclusive: 14.1 µM [inhibitor, single point]
O=C(CCCCCn1c(=S)[nH]c2cc3c(cc2c1=O)OCO3)N1CCN(Cc2ccccc2)CC1	inconclusive: 35.5 µM [inhibitor, single point]
CCOc1cc(CNCCO)cc(Br)c1OCc1ccccc1	inconclusive: 20 µM [inhibitor, single point]
Cc1ccc(-c2noc(CSc3nnc(-c4ccncc4)n3-c3ccc(C)cc3)n2)cc1	inactive
COc1cccc(N2CCN(C(=O)CCc3nnc4ccc(N5CCCC5)nn34)CC2)c1	inconclusive: 14.1 µM [inhibitor, single point]
Cc1nc(NC(=O)c2ccc(OCC(C)C)cc2)sc1Cc1ccc2c(c1)OCO2	inconclusive: 35.5 µM [inhibitor, single point]
C/C(=N\O)c1c(C)c2ccccc2n1C	inconclusive: 35.5 µM [inhibitor, single point]
COc1ccccc1NS(=O)(=O)c1cc(NC(=O)c2ccc3c(c2)OCCO3)ccc1C	inconclusive: 12.6 µM [inhibitor, single point]
O=C(CN1CC(=O)Oc2ccccc21)OCC(=O)c1ccccc1	inconclusive: 35.5 µM [inhibitor, single point]
COc1ccc(Nc2nnc(SCC(=O)NC(=O)Nc3ccc4c(c3)OCCO4)s2)cc1	inconclusive: 35.5 µM [inhibitor, single point]
CCOc1ccccc1C(=O)N[C@H](C(=O)OCc1cc(=O)oc2cc(C)ccc12)C(C)C	inconclusive: 35.5 µM [inhibitor, single point]
CC(CNC(=O)Cn1ccc(NC(=O)OCc2ccccc2)nc1=O)c1ccccc1 (centres undefined)	inconclusive: 11.2 µM [inhibitor, partial curve]
CCCCN(C)C(=O)c1ccc2c(c1)N(Cc1cccc(F)c1)C(=O)c1ccccc1S2	inconclusive: 22.4 µM [inhibitor, single point]
C=CCSc1n[nH]c(-c2cccs2)n1	inactive
COc1cc(CNC(=O)Nc2nc(C(N)Cc3ccc(C(F)(F)F)cc3)cs2)cc(OC)c1OC (centres undefined)	inconclusive: 35.5 µM [inhibitor, single point]
Oc1cccc(Nc2nc(NCC3CCCO3)c3ccccc3n2)c1 (centres undefined)	inconclusive: 25.1 µM [inhibitor, single point]
c1ccc(-c2cn(C[C@H]3CC[C@@H]([C@@H]4CC[C@H](Cn5cc(-c6ccccc6)nn5)O4)O3)nn2)cc1	inconclusive: 5.62 µM [inhibitor, single point]

Structure (SMILES)	Potency
COc1ccc(Cc2c(-c3ccccc3)nc3c(C)cc(Br)cn23)c(C)c1	inconclusive: 17.8 µM [inhibitor, single point]
C=CC(=O)Oc1ccc(N2Cc3ccccc3C2=O)cc1	inconclusive: 22.4 µM [inhibitor, single point]
Clc1ccc(-n2c(Cc3ccccc3)nnc2SCc2nc(-c3cccs3)no2)cc1	inconclusive: 35.5 µM [inhibitor, partial curve, poor fit]
O=C(N=NC(=O)c1ccc2c(O)n(C3CCCCC3)c(O)c2c1)c1cccnc1	inactive
CCOc1ccc(NC(=O)c2nc(S(=O)(=O)Cc3ccc(F)cc3)ncc2Cl)cc1	active: 11.2 µM
CCN(Cc1ccncc1)Cc1c(O)ccc2cc(Br)ccc12	inconclusive: 11.2 µM [inhibitor, partial curve, poor fit]
O=C(NC(NC(=S)Nc1cccc(Cl)c1)C(Cl)(Cl)Cl)OCc1ccccc1 (centres undefined)	active: 6.31 µM
Nc1c(N(Cc2ccccc2)C(=O)CCc2ccccc2)c(=O)[nH]c(=O)n1Cc1ccccc1	inconclusive: 0.794 µM [inhibitor, full curve, poor fit]
CCn1c(=O)n(CC(=O)NCC2CCCO2)c(=O)c2c3c(sc21)COC(C)(C)C3 (centres undefined)	inactive
Cc1ccc(S(=O)(=O)N2C[C@@H]3[C@H]4CC[C@H](C4)[C@@H]3[C@@H](C)[C@@H]2c2cccn2Cc2ccccc2)cc1	inactive
O=C(C1CCCCC1)N1C[C@@H](O)[C@H](n2cc(-c3ccc(F)cc3)nn2)C[C@@H]1c1ccc(Cl)cc1	inconclusive: 22.4 µM [inhibitor, single point]
COc1ccc(C(=O)N2CCCC(c3cc(C(=O)NCc4ccccc4)no3)C2)cc1 (centres undefined)	inactive
COc1ccc(Cn2c(CNC(=O)Cc3cccc([N+](=O)[O-])c3)nc3cccnc32)cc1	inconclusive: 17.8 µM [inhibitor, single point]
COc1ccc(NC(=S)NC(NC(=O)c2cccc(Cl)c2)C(Cl)(Cl)Cl)c([N+](=O)[O-])c1 (centres undefined)	active: 22.4 µM
CC(=O)N1CCN(c2nc3c(F)cc(F)cc3s2)CC1	inactive
COc1ccc(Cl)cc1NC(=O)Cn1c(C)csc1=O	inactive
COc1ccc(C2c3ccc(O)cc3Oc3ncn4nc(-c5cccnc5)nc4c32)cc1OC (centres undefined)	inconclusive: 31.6 µM [inhibitor, single point]
CCC(C)N(C(=O)Cn1nnc2ccccc21)C(C(=O)Nc1ccc(F)cc1)c1cccc(OC)c1 (centres undefined)	inconclusive: 28.2 µM [inhibitor, single point]
Cc1ccc2oc(C(=O)Nc3nc(-c4ccc(F)cc4)ns3)c(C)c2c1	inconclusive: 35.5 µM [inhibitor, single point]
O=C(CN1CCN(c2ccccn2)CC1)Nc1ccc(Oc2ccccc2)cc1	inactive
O=C(/C=C/c1ccco1)Nc1ccccc1C(=O)O	inconclusive: 28.2 µM [inhibitor, partial curve, poor fit]
COc1ccc(-c2nc3ncccc3n2O)cc1	inactive

Structure (SMILES)	Potency
COc1ccc(CCNC(=O)c2ccc3c(Cl)c4c(nc3c2)CCCC4)cc1OC	inconclusive: 6.31 µM [inhibitor, full curve]
CC(C)(C)NC(=O)C(OC(=O)c1cccs1)c1ccccc1 (centres undefined)	inconclusive: 22.4 µM [inhibitor, single point]
CN1C2=CC=CC=CC2=[N+](C)C12C([N+](=O)[O-])=CC(=[N+]([O-])[O-])C=C2[N+](=O)[O-] (centres undefined)	inconclusive: 17.8 µM [inhibitor, partial curve, poor fit]
Cc1ccc(NC(=O)Cn2c(SCc3cccc(F)c3)nc3ccncc32)c(C)c1	inconclusive: 6.31 µM [inhibitor, partial curve, poor fit]
COc1ccc(C(=O)NCC(c2cccnc2)N2CCN(c3ccccc3OC)CC2)cc1 (centres undefined)	inconclusive: 8.91 µM [inhibitor, partial curve, poor fit]
CC(C)(C)[C@@H]1C=C(C(=O)Nc2ccccc2)O[C@H](OCc2ccc(CO)cc2)C1	inconclusive: 1.26 µM [inhibitor, full curve, poor fit]
CC(=O)Oc1ccc2ccccc2c1C(NC(=O)C(C)C)c1cccc([N+](=O)[O-])c1 (centres undefined)	inconclusive: 35.5 µM [inhibitor, single point]
COc1ccc2cc3cc(C(=O)N4CCCCC4C)oc3nc2c1 (centres undefined)	inactive
Cc1ccc(N=Nc2c(C)[nH]n(C(N)=S)c2=O)cc1	inactive
CN(C)c1ccc(-c2nc3ccccc3n2C)cc1	inconclusive: 5.01 µM [inhibitor, partial curve, poor fit]
Cc1occc1-c1nnc(SCC(=O)N2CCOCC2)o1	inconclusive: 2.82 µM [inhibitor, single point]
O=C(C(Cc1ccccc1)N1C(=O)c2ccccc2C1=O)N1c2ccccc2CCc2ccccc21 (centres undefined)	inconclusive: 3.16 µM [inhibitor, full curve, poor fit]
Cc1ccccc1Nc1nnc(-c2ccc(C)c(S(=O)(=O)N3CCN(C)CC3)c2)c2ccccc12	inconclusive: 35.5 µM [inhibitor, single point]
NC(=NCc1ccccc1)NN=Cc1ccnc2ccccc12	inconclusive: 22.4 µM [inhibitor, single point]
Cc1ccc(C)c(OCCSc2nnc(-c3cccnc3)n2N)c1	inconclusive: 35.5 µM [inhibitor, single point]
S=C(Nc1ccc(Oc2ccccc2)cc1)Nc1cccnc1	inconclusive: 35.5 µM [inhibitor, single point]
COc1ccc(C(C(=O)Nc2ccc(C(C)C)cc2)N(C)C(=O)Cc2cccs2)cc1 (centres undefined)	inactive
Oc1cc(-c2ccccc2)c2ccccc2c1	inconclusive: 10 µM [inhibitor, partial curve, poor fit]
CC1(C)C2CCC1(CS(=O)(=O)Nc1ccccc1)C(=O)C2 (centres undefined)	inactive
O=C(Nc1nnc([C@H]2C[C@H](O)[C@@H](CO)O2)s1)Nc1ccccc1C(F)(F)F	inactive
